This note sets out measurements from publication doi:10.1101/2024.03.20.585962 (2024).

Assay [1] addresses BRD3_p5_TAMRA (N-terminal D-Tyr; thioether cyclisation of the N-terminal chloroacetyl group with a cysteine; TAMRA fluorophore (on the C-terminal azide group); N-methylalanine where Figure 3D prints X).
In assay [2] the target is BRD3_p8 (N-terminal D-Tyr; thioether cyclisation of the N-terminal chloroacetyl group with a cysteine; azide group at the C-terminus; N-methylalanine where Figure 3D prints X). In words: SPR.
For assay [3], the target named is BRD3_p3.1. In words: SPR. Background: In SPR one partner is held on a chip, and binding of the other changes the refractive index at the surface.
The target of assay [4] is BRD3_p5. Kind of assay: SPR.
Assay [5] concerns the target BRD3_p7 (N-terminal D-Tyr; thioether cyclisation of the N-terminal chloroacetyl group with a cysteine; azide group at the C-terminus; N-methylalanine where Figure 3D prints X). In words: SPR.
Assay [6] concerns the target BRD3_p6 (N-terminal D-Tyr; thioether cyclisation of the N-terminal chloroacetyl group with a cysteine; azide group at the C-terminus; N-methylalanine where Figure 3D prints X). In words: SPR.
In assay [7] the target is BRD3_p4 (N-terminal D-Tyr; thioether cyclisation of the N-terminal chloroacetyl group with a cysteine; azide group at the C-terminus; N-methylalanine where Figure 3D prints X). Kind of assay: SPR.
Assay [8] has as its target BRD3_p10. In words: SPR.
Assay [9] addresses BRD3_p1 (N-terminal D-Tyr; thioether cyclisation of the N-terminal chloroacetyl group with a cysteine; azide group at the C-terminus; N-methylalanine where Figure 3D prints X). Kind of assay: SPR.
Assay [10] addresses BRD3_p9 (N-terminal D-Tyr; thioether cyclisation of the N-terminal chloroacetyl group with a cysteine; azide group at the C-terminus; N-methylalanine where Figure 3D prints X). In words: SPR.
Assay [11] concerns the target BRD3_p3.2. In words: SPR.
For assay [12], the target named is BRD3_p2 (N-terminal D-Tyr; thioether cyclisation of the N-terminal chloroacetyl group with a cysteine; azide group at the C-terminus; N-methylalanine where Figure 3D prints X). In words: SPR.

B1: HiBiT-tagged BRD3([…]) (domain or fragment)
chain: AAPMVSKGAESSRSSEESSSDSGSSDSEEERATRLAELQEQLKAVHEQLAALSQAPVNKPKKKKEKKEKEKKKKDKEKEKEKHKVKAEEEKKAKVAPPAKQAQQKKAPAKKANSTTTAGRQLKKG[about 80 residues omitted]QRKPFSASGKKQAAKSKEELAQEKKKELEKRLQDVSGQLSSSKKPARKEKPGSAPSGGPSRLSSSSSSESGSSSSSGSSSDSSDSE
With B1, in assay [1], binding was put at a Kd of 12 nM. That is a double-digit nanomolar value.

B2: BRD3-L (domain or fragment)
chain: VEAPALPAPAAPMVSKGAESSRSSEESSSDSGSSDSEEERATRLAELQEQLKAVHEQLAALSQAPVNKPKKKKEKKEKEKKKKDKEKEKEKHKVKAEEEKKAKVAPPAKQAQQKKAPAKKANSTTTAGRQLKKG[about 80 residues omitted]QRKPFSASGKKQAAKSKEELAQEKKKELEKRLQDVSGQLSSSKKPARKEKPGSAPSGGPSRLSSSSSSESGSSSSSGSSSDSSDSE
modifications: biotin (biotinylated protein; site not stated)
For B2, the Kd was more than 1000 nM in [2]; 680 nM in [3]; 13 nM in assay [4]; 17 nM in [5]; 4.2 nM in [6]; 5.9 nM in assay [7]. Besides, the Kd in assay [8] is 250 nM; in assay [9] it was 3.3 nM; in assay [10] it was 38 nM; in [11] it was 51 nM; in assay [12] it was more than 1000 nM.

By Kd is commonly meant the concentration at which binding is half-saturated.
